Test results reported in US20240209098A1.

How the values were obtained:
[1] = target: human Type II collagen (human) (UniProt P02458); experiment: SPR (Biacore 3000), target immobilised on CM5 chip, fusion protein as analyte, Langmuir 1:1
[2] = target: human Type II collagen (human) (UniProt P02458); experiment: ELISA, human Type II collagen coated on the plate, fusion protein titrated, detection with anti-human-IgG antibody

Kd [1]: 35 nM
B1: CID 217793, fusion protein n[Col2-BP1_as dimer - VEGF-BP]c (Fc fusion)
chain: IAAKFDEAQSAADSEILHLPNLTEQQRHYFRRWLSDDPSVSTHILTQAQHLNDDQAPKIAAKFDEAQSAADSEILHLPNLTEQQRHYFRRWLSDDPSVSTHILTQAQHLNDDQAPKGGGGSGGGGSGGGGSSDTGRPFVEMYSEIPEIIHMTEGRELVIPCRVTSPNITVTLKKFPLDTLIPDGKRIIWDSRKGFIISNATYKEIGLLTCEATVNGHLYKTNYLTHRQTNTIIDVVLSPSHGIELSVGEKLVLNCTARTELNVGIDFNWEYPSSKHQHKKLVNRDLKTQSGSEMKKFLSTLTIDGVTRSDQGLYTCAASSGLMTKKNSTFVRVHEK[skipping human IgG1 Fc]

Kd [1]: 1.38 nM
Kd [2]: 0.1 nM
B2: CID 213182, fusion protein n[VEGF-BP, Col2-BP1 as dimer]c (Fc fusion)
chain: SDTGRPFVEMYSEIPEIIHMTEGRELVIPCRVTSPNITVTLKKFPLDTLIPDGKRIIWDSRKGFIISNATYKEIGLLTCEATVNGHLYKTNYLTHRQTNTIIDVVLSPSHGIELSVGEKLVLNCTARTELNVGIDFNWEYPSSKHQHKKLVNRDLKTQSGSEMKKFLSTLTIDGVTRSDQGLYTCAASSGLMTKKNSTFVRVHEK[skipping human IgG1 Fc]GGGSGGGGSGGGGSIAAKFDEAQSAADSEILHLPNLTEQQRHYFRRWLSDDPSVSTHILTQAQHLNDDQAPKIAAKFDEAQSAADSEILHLPNLTEQQRHYFRRWLSDDPSVSTHILTQAQHLNDDQAPK

Kd [1]: 0.15 nM
B3: CID 213184, fusion protein n[VEGF-BP, Col2-BP1 as tetramer]c (Fc fusion)
chain: SDTGRPFVEMYSEIPEIIHMTEGRELVIPCRVTSPNITVTLKKFPLDTLIPDGKRIIWDSRKGFIISNATYKEIGLLTCEATVNGHLYKTNYLTHRQTNTIIDVVLSPSHGIELSVGEKLVLNCTARTELNVGIDFNWEYPSSKHQHKKLVNRDLKTQSGSEMKKFLSTLTIDGVTRSDQGLYTCAASSGLMTKKNSTFVRVHEK[skipping human IgG1 Fc]GGGSGGGGSGGGGSIAAKFDEAQSAADSEILHLPNLTEQQRHYFRRWLSDDPSVSTHILTQAQHLNDDQAPKIAAKFDEAQSAADSEILHLPNLTEQQRHYFRRWLSDDPSVSTHILTQAQHLNDDQAPKIAAKFDEAQSAADSEILHLPNLTEQQRHYFRRWLSDDPSVSTHILTQAQHLNDDQAPKIAAKFDEAQSAADSEILHLPNLTEQQRHYFRRWLSDDPSVSTHILTQAQHLNDDQAPK

Each block holds one binder with its values, some of them ahead of it.
